Experimental data from the RNAGym collection of RNA variant scans (doi:10.7554/elife.90254).
The source gives no read counts; variants with many changes may rest on few reads.

B1: OR4K15 (parent)
chain: GUUAACGGUCAUAGGCCAUGGAAACUAGGAGCACCAUUUCGCUGCCAGUGAAGAAAUGAACAAAGAAAAUCUGGGCCAGGCAGGCAUCAAAAGAAAUAGUCUUGCGCUCAACCAGAAAGUCUGUAAUCAUUUUAAGGGUA

Variants of: B1
Test: self-cleavage, relative activity (ratio to wild type); higher = more cleavage; in vitro, sequencing; the parent is a self-cleaving ribozyme

Row | Variant | self-cleavage
1 | A51G A95U U124A A134G | 0.78
2 | A23G U43A A63G U122C | 0.93
3 | U43C A111G U132A | 0.01
4 | A36U U38C U43C A126G | 1.18
5 | C32G A60G C85A | 1.32
6 | A22U A55G A92G A111U | 0.13
7 | A59G A62C C105A U122C | 0.01
8 | U9C A62G C107A A117U | 0.04
9 | A11G U39A U43C A60G C105U U108C A114U | 0.01
10 | A33G U38G A96G U108C A126G | 0
11 | A5C A33U U122A | 1.58
12 | A5G A23G U70C U108C | 0.05
13 | G21A A23G U37C U39C | 1.04
14 | A23G A52G A54G U87C A94U U122A | 0.39
15 | C6A A13G U131C A135U | 1.07
16 | A30U A52G U70A U131C | 0.62
17 | A22G U39C U103C | 0.67
18 | A51U A110G A117G | 0.06
19 | U26C A59G U100C | 2.58
20 | A22G A111G U122C | 0.05
21 | A23G G73A C105U | 0.04
22 | A11G U38A A51G A116U | 0.95
23 | A86U U87C A91G | 0.83
24 | A56U A59G A67G A118G A135G A140U | 1.36

Row | Variant | self-cleavage
25 | A36G A51G A62G A68G A98G | 0.61
26 | G7U A52G A60G U70C U97C A126G | 0.2
27 | A30G A116G U133A | 0.67
28 | U9A U37C U130G | 0.67
29 | U38C U43A A67G U120A | 2.35
30 | G14A A117U U122C | 0.73
31 | A11G G73U A135G U139A | 0.21
32 | C40A A60U A96U | 2.35
33 | A51G A111G G115U | 0.01
34 | U37C A59G A67G | 1.54
35 | U9C A24G A47G A55U U132A | 0.28
36 | A22G A23G A96G A125G | 0.34
37 | A23G U38C U39C A47G | 1.47
38 | A23G A62U A89G U131C | 0.61
39 | A11G A52G A56G A90G | 1.25
40 | A33G A60G A69U | 1.24
41 | A13C A92G A114C | 0.1
42 | U19A A36U A78G | 0.33
43 | A62U A95C U127C | 0.55
44 | U2C A33G A66U | 0.63
45 | A56G A63G A118G A125G | 0.14
46 | A5U A13C A22G A56G U102A | 0.82
47 | A11U U122C U139C | 1.17
48 | A27G A66G A126G | 1.26

Row | Variant | self-cleavage
49 | U87C A94G A98U U122C A140G | 1.27
50 | A18U U26C A89U | 1.07
51 | A27G U57C U131C | 0.45
52 | A36G A67G A82G | 0.64
53 | U37C A90G U108G U120C | 0
54 | A54G A67G A90G A98U | 2.16
55 | G8A A54G U57G A62G A96G U102C A116G | 1.2
56 | A13U C45U U49C U57C | 0.99
57 | A23G A51U A63G | 0.82
58 | A51U A52G U132C | 1.03
59 | A11G A23G U38C U49C A86G | 0.72
60 | G31A U70C A90G | 0.44
61 | U38C A56G G123A | 1
62 | A23G A33G U49C A68C A94G | 0.65
63 | A33U A78G G137A | 0.23
64 | A24G U38C A62G A94G A110G | 0.11
65 | A18G A23G A33G A64G A111G | 0.04
66 | A13U A22U A23G A33C A78G A116U A140C | 0.1
67 | U12A A23U A51U | 1.32
68 | A24C A36U C113A A116G | 0.01
69 | A18G U39C G74U | 0.21
70 | A11U U39C A64U U132C | 0.21
71 | A5U A22G U72C A118G | 0.21
72 | A11G A18G A114U | 0.09

Row | Variant | self-cleavage
73 | A62U A96G A114G | 0.81
74 | A59G A117U U139A | 0.91
75 | U49C U70C A82U | 0.29
76 | A62G A67G A69U A89G A117G | 1.39
77 | A36U U43A A47G U103C U108C | 0.02
78 | U39C A68G A116G A126G | 0.25
79 | U3C A24G U49C | 1.42
80 | A56G A69G G119A | 1.13
81 | A4G C61G C85G A134U | 0.92
82 | A13G U43C A118U A125G | 0.49
83 | U49C A56G A66G A110U | 0.43
84 | A36G A52G A82G A95G U122C | 0.75
85 | A82U A90G U131C | 0.13
86 | A24G C35U A54G A96G U132C | 1.05
87 | G41C A117G A129U | 0.53
88 | A5G U37C U72C | 0.33
89 | A52G U122C U131C | 0.6
90 | A11G A59G A68G C85U | 0.51
91 | U2C A22G A110U | 0.86
92 | U38C U72A A86G A116G | 0.06
93 | G8A A11G A22U | 1.11
94 | A56G A82G A91U U108A | 0
95 | A27G A59G C85U A94G | 0.67
96 | A33U U57C A82G A92G A95G U130C | 0.55

Row | Variant | self-cleavage
97 | A5U U49A C112U | 0.08
98 | U38C A68G G83A | 1.63
99 | G74U U87C A94G | 0.17
100 | U12A U49C A89G A94G A98C U131C | 1.08
101 | A60U U127C A129G | 0.57
102 | U39A U57C C88U | 1.64
103 | A36G G58U A64G A86G | 0.96
104 | U9C G58U A62U U70C A134U | 0.92
105 | A68G G93U A110C | 0.45
106 | A11U C25U U43C A62G A64G | 0.2
107 | A52G U100C U103C | 2.26
108 | G28A A55G A89G | 0.81
109 | A33G U72A U87C | 0.2
110 | A22C A68G U122C | 0.49
111 | A23G G44U A69G A78G | 0.29
112 | A23U A59G U102A G138A | 0.42
113 | A67G U102A A117G | 1.48
114 | U3C U49C U57A A98G U131C | 0.24
115 | A78G A126U U132C | 0.07
116 | U9C A11G A52G A116G | 1.46
117 | U3C U57C A62G U70C A92G A114G | 0.05
118 | U2A A5G U19C A56G A59G A67U U132C | 0.79
119 | A5G C25U U38A A60G | 0.71
120 | U12C A13G U49C A55G | 0.56

Row | Variant | self-cleavage
121 | U39A U49C U102C A118G | 1.55
122 | U9C A92G C121U | 2.37
123 | U2C G20U A47G | 1.21
124 | U9A A24G A30G U37C A94G | 1.61
125 | U38C A56G A95C A96G U122A A135C | 0.91
126 | A23G A56G U87C A116G U124C U127C | 0.14
127 | A18U A36G U43C | 2.18
128 | U3C C42A A52G A126G | 0.33
129 | U12C A82U U139A | 0.24
130 | U39A A82G A92U | 0.56
131 | A52G A56U A60G | 0.53
132 | A30G U37C U38C | 1.2
133 | A11G A66G A94G | 0.61
134 | A11G U38C A64G U122A | 0.42
135 | A11C A18C A24G | 1.08
136 | U12A A23G A51G A68G | 1.5
137 | U12C U37C A94G U108C | 0.07
138 | U72A A82G A118G | 0.13
139 | A27G A47G U127C U139C | 0.42
140 | A52G A67G A116G A126G | 0.07
141 | A13G A60U U72A U100A | 0.38
142 | A5G U108C U132C | 0.05
143 | A59U A94U A111G | 0.02
144 | C46U A69G A78C A86G G93U U120C | 0.15

Row | Variant | self-cleavage
145 | U12C A62G A129G | 1.46
146 | A64G A69G C77U A110G | 0.38
147 | A66G A95G A134G | 2.38
148 | A69G U70A U108C G115A | 0.02
149 | A63G A69U A91G U97C U122C | 0.32
150 | C46U A68G G123A | 1
151 | A18G U39C U49C A55G A56C A86U U87C A135G | 0.31
152 | A24C U49C A92G | 1.02
153 | A4G U19G A86U A96G U127G | 1.71
154 | A67G A91G U103C U132C | 0.64
155 | A33G A52G A59G C85U C105A U108C | 0.04
156 | A24G U87C U102A | 1.04
157 | A30G A36G A51G A118U | 0.34
158 | A51G A52G A64G C71U U120C | 0.45
159 | A11G A27G A62G A67G A89U | 0.71
160 | A13G U100A U102C | 1.6
161 | A11G A22G A60U A86G U102C | 0.19
162 | A68U U70C A78G A95G U120C U122C | 0.21
163 | U131C U132C A140G | 0.14
164 | A36G U57C A94G A125G A135G | 0.24
165 | A60G A64G A68G A96G C105G A110U | 0.01
166 | A68G U108C A118G | 0
167 | A24G A95G C105G | 0.05
